For 50 compounds, cell viability results are on record in the supplement of paper PMC10600219.

Structures are written as SMILES. Structures can show the parent of a compound that is named as a salt. The full ranking holds about 2,800 compounds; the median of “cell viability relative to vehicle” is about 1.1, and the lowest 2% start at about 0.19. The list shows a part of the results.

The assay deals with NCI-H2228 parental. The experiment in a line: cell viability relative to vehicle (fraction of vehicle); NCI-H2228 is an ALK-positive lung cancer line and DTP means drug-tolerant persister; higher = less growth inhibition. The settings on record: 100 nM; treatment time 6 days. The procedure, abridged: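 Parental NCI-H2228 cells and drug-tolerant persister cells (made with 1000 nM of a targeted drug for 13 days) were seeded in 384-well plates. The next day, the 3114-agent TargetMol anti-cancer compound library was added at 100 nM, with DMSO as vehicle. After 6 days, ATP was read with the CellTiter-Glo 3D Cell Viability Assay. Each value is cell viability relative to vehicle-treated cells.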
Take `Cc1ccc2c(=O)c3cccc(CC(=O)O)c3oc2c1C`: the cell viability stood at 1.19.

As for `CC(C)(C)c1ccc(C(O)CCCN2CCC(C(O)(c3ccccc3)c3ccccc3)CC2)cc1` (stereo not given) [Terfenadine], the cell viability came to 1.06.

On to `CC(COc1ccccc1)NC(C)C(O)c1ccc(O)cc1` (stereo not given) [Isoxsuprine hydrochloride], for which the cell viability turned out to be 0.983. Under `O=C1Nc2ccccc2/C1=C/c1ccc(F)cc1` stands 1.05; under `CCOC(=O)c1[nH]c2cc(Cl)ccc2c1C(C(=O)NC(C)(C)C)N(C=O)Cc1ccc(Cl)cc1` (stereo not given), 1.02; under `COC1CCN(C(=O)c2cc(Cc3n[nH]c(=O)c4ccccc34)ccc2F)CC1`, 0.928. With `COc1ccc(C[C@@H]2c3cc(Oc4cc(C[C@@H]5c6cc(OC)c(OC)cc6CCN5C)ccc4O)c(OC)cc3CCN2C)cc1` [Neferine], the cell viability is 1.18. As for `C=CC(=O)Nc1ccc(CN2C(=O)N(c3cc(OC)cc(OC)c3)Cc3cnc(Nc4ccc(N5CCN(C)CC5)cc4)nc32)cc1`, the cell viability came out at 0.858.

Regarding `Cn1cc(-c2ccncc2)c(-c2ccc(OCc3ccc4ccccc4n3)cc2)n1`, the cell viability amounted to 1.1.

On to `O=C(O)[C@H]1O[C@@H](Oc2cc3oc(-c4ccccc4)cc(=O)c3c(O)c2O)[C@H](O)[C@@H](O)[C@@H]1O` [Baicalin], for which the cell viability came to 1.02.

In the case of `Nc1ccc(S(=O)(=O)Nc2ccccn2)cc1` [Sulfapyridine], the cell viability was 1.15. Under `Nc1ccn([C@@H]2O[C@H](CO)[C@@H](O)[C@@H]2O)c(=O)n1` [Cytarabine] stands 0.12. Under `Nc1ncnc2c1ncn2C1CCCO1` (stereo not given) stands 1.06; under `Cc1cc(C)c(S(=O)(=O)n2cc(C)cc2C)c(C)c1`, 1.13. To `COc1ccnc(C[S+]([O-])c2nc3cc(OC(F)F)ccc3[nH]2)c1OC` (stereo not given) [Pantoprazole sodium] belongs 1.09; to `COc1ccnc(C[S+]([O-])c2nc3cc(OC(F)F)ccc3[nH]2)c1OC` (stereo not given) [Pantoprazole Sodium Hydrate], 1.11. Regarding `Cc1[nH]c2ccccc2c1CCNCc1ccc(/C=C/C(=O)NO)cc1` [Panobinostat], the cell viability came to 0.094.

Regarding `Cc1nc(-c2cccnc2)sc1C(=O)Nc1ccccc1-c1cn2c(CN3CCOCC3)csc2n1`, the cell viability was determined as 1.21. Under `O=c1ccc2ccccc2o1` [Coumarin] stands 1.14. `O=C(O)c1c[nH]c2cc(Cl)c(-c3ccc(C4(O)CCC4)cc3)cc12`: the cell viability was 1.09. For the compound `Nc1ccc(C(=O)Nc2cccc(-c3nc(N4CCOCC4)c4oc5ncccc5c4n3)c2)cn1`, the cell viability worked out at 1.15.

As for `CN(C)CCCN1c2ccccc2Sc2ccc(Cl)cc21` [Chlorpromazine hydrochloride], the cell viability is 1.26. Take `CC(=O)N1CCC2(CC1)c1cc(C#C[C@H]3O[C@H](CO)[C@@H](O)[C@H](O)[C@@H]3O)ccc1-c1ccc(C#C[C@H]3O[C@H](CO)[C@@H](O)[C@H](O)[C@@H]3O)cc12` [Antibiotic-202]: the cell viability turned out to be 1.08.

For the compound `O=C1NC(=O)/C(=C/c2ccc3c(c2)OC(F)(F)O3)S1`, the cell viability amounted to 1.13.

With `COc1ccc(-c2coc3cc(O)ccc3c2=O)cc1O` [Calycosin], the cell viability turned out to be 1.04. For the compound `COc1cc([C@@H]2c3cc4c(cc3[C@@H](O[C@@H]3O[C@@H]5CO[C@@H](c6cccs6)O[C@H]5[C@H](O)[C@H]3O)[C@H]3COC(=O)[C@H]23)OCO4)cc(OC)c1O` [Teniposide], the cell viability was 0.24. Under `NC(=O)c1ccc[n+]([O-])c1` [Nicotinamide-N-oxide] stands 1.16; under `O=C(C[S+]([O-])Cc1ccco1)NC/C=C\COc1cc(CN2CCCCC2)ccn1` (stereo not given) [Lafutidine], 1.14; under `O=C(c1ccccc1)c1ccc2n1CCC2C(=O)O` (stereo not given) [Ketorolac tromethamine salt], 1.01.

As for `COc1c(N2CCNC(C)C2)c(F)cc2c(=O)c(C(=O)O)cn(C3CC3)c12` (stereo not given) [Gatifloxacin], the cell viability came out at 1.06.

Regarding `Cc1ccccc1C(C(=O)NC1CCCCC1)N(C(=O)Cn1cnc2ccccc21)c1cccc(F)c1` (stereo not given), the cell viability worked out at 1.19. Under `O=C(Nc1ccccc1Br)N[C@@H]1CCN(c2ccc(C(F)(F)F)cn2)C1` stands 1.06.

As to `CC(C)c1c(-c2ccccc2)nc2c(C#N)c[nH]n2c1=O`, the cell viability turned out to be 1.1. To `Cc1ccc2nc(N)[nH]c(=O)c2c1Sc1ccncc1` [Nolatrexed] belongs 1.04; to `O=C(O)COc1ccc(Br)cc1/C=C1\SC(=S)N(Cc2cccnc2)C1=O` [Skp2 Inhibitor C1], 0.978.

`O=C(NOCC(O)CO)c1cc(Br)c(F)c(F)c1Nc1ccc(I)cc1F` (stereo not given): the cell viability stood at 0.843.

For the compound `CN(C)CC(c1ccc(O)cc1)C1(O)CCCCC1` (stereo not given) [Desvenlafaxine], the cell viability came to 1.02. As for `C=C(C)[C@@H]1CC=C(CO)CC1` [Perillyl alcohol], the cell viability was 1.08.

For `CN(C)C/C=C/C(=O)Nc1cc2c(Nc3ccc(F)c(Cl)c3)ncnc2cc1O[C@H]1CCOC1` [Afatinib], the cell viability is 1.1. Under `CN(C)C/C=C/C(=O)Nc1cc2c(Nc3ccc(F)c(Cl)c3)ncnc2cc1O[C@H]1CCOC1` [Afatinib Dimaleate] stands 1.02; under `O=C1NC(=O)C(=Cc2ccc(-c3ccc(F)cc3)o2)S1` (stereo in doubt), 1.1; under `O=C1NCCCc2c1oc1ccc(O)cc21`, 0.957. Under `COc1cc(N2CCC(N3CCN(C)CC3)CC2)ccc1Nc1ncc(Cl)c(Nc2ccccc2P(C)(C)=O)n1` [Brigatinib] stands 0.426.

On to `COc1ccccc1OCC(O)COC(N)=O` (stereo not given) [Methocarbamol], for which the cell viability worked out at 1.32. Under `Cc1cc(N)c2ccccc2[n+]1CCCCCCCCCC[n+]1c(C)cc(N)c2ccccc21` [Dequalinium chloride] stands 0.804; under `CCc1c(Cl)c(O)c(Cl)c(O)c1C(=O)O[C@H]1[C@H](O)[C@H](OC)[C@H](OC/C2=C\C=C\C[C@H](O)/C(C)=C/[C@H](CC)[C@@H](O[C@@H]3OC(C)(C)[C@@H](OC(=O)C(C)C)[C@H](O)[C@@H]3O)/C(C)=C/C(C)=C/C[C@@H]([C@@H](C)O)OC2=O)O[C@@H]1C` [Fidaxomicin], 1.1. Under `Nc1ccn([C@@H]2CS[C@H](CO)O2)c(=O)n1` [Lamivudine] stands 1.21.

As to `COC(=O)Nc1nc2cc([S+]([O-])c3ccccc3)ccc2[nH]1` (stereo not given) [Oxfendazole], the cell viability amounted to 1.18.

Consider `N#Cc1c(NC(=O)c2cccc3ccccc23)sc2c1CCCC2`, for which the cell viability was determined as 0.393. To `C=CC(=O)Nc1cccc(Nc2nc(Nc3ccc(OCCOC)cc3)ncc2F)c1` [Spebrutinib] belongs 0.822.
